{"source": "PubChem BioAssay AID2451", "about": "(National Center for Advancing Translational Sciences (NCATS), 2010)", "note": "Screen size: about 290,000 compounds; about 2,100 (0.72%) were called active. The shares of active, inactive and inconclusive entries below differ from those in the screen. Calls come from the whole dose curve; as a rule, active = well fitted inhibition curve with a large enough effect; inconclusive = small, poorly fitted or top-dose-only effect, or effect the other way; inactive = flat fitted curve, though single readings scatter. Potencies beside an inconclusive call are fits to weak or partial responses and may not hold up. Potency is the fitted concentration of half-maximal effect; tags give direction and shape of the fitted curve.", "data": [{"molecular_target": "Fructose-bisphosphate aldolase (Giardia intestinalis (strain ATCC 50803 / WB clone C6)) (UniProt A8B2U2)", "sequence (A8B2U2 whole entry, looked up)": "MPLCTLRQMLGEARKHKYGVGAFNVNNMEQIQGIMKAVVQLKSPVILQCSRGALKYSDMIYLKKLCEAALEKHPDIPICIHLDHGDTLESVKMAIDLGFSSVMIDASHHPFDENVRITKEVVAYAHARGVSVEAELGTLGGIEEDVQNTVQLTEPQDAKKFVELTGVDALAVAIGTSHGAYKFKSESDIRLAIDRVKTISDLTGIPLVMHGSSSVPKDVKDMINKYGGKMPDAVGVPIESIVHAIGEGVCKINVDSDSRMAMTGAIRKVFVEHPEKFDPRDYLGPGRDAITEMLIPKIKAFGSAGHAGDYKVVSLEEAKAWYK", "assay": "qHTS Assay for Inhibitors of Fructose-1,6-bisphosphate Aldolase from Giardia Lamblia; note: nearly all actives have a fitted effect of over 55% in size", "details": "purified Giardia FBPA; series mostly up to 59.6 µM", "how_it_was_run": "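Giardia FBPA (40 nM reagent) was preincubated 10 min at RT with compound (up to 57.5 uM final), then substrate plus GAPDH/TPI/NAD/arsenate coupling system with diaphorase/resazurin was added; resorufin fluorescence (525/598 nm) was read after 20 min.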", "values": [{"smiles": "Cn1c(COc2ccc(Br)cc2)nnc1SC1CCc2ccccc2C1=O", "note": "(stereo not given)", "Potency": "active: 17.7 µM"}, {"smiles": "CC(CNc1ccccc1O)C(=O)O", "note": "(stereo not given)", "Potency": "inconclusive: 17.7 µM [inhibitor, partial curve]"}, {"smiles": "Cc1cccc(/C=N/NC(=O)c2cccc([N+](=O)[O-])c2)n1", "Potency": "inconclusive: 11.2 µM [inhibitor, partial curve]"}, {"smiles": "Oc1cccc(C=NCc2ccccc2)c1O", "Potency": "active: 7.06 µM"}, {"smiles": "Cc1ccc([N+](=O)[O-])c(OCCN2CCc3ccccc3C2)c1", "Potency": "inconclusive: 28.2 µM [inhibitor, single point]"}, {"smiles": "CCOc1cc2c(cc1OCC)-n1cccc1C(c1cccc(F)c1F)NC2", "note": "(stereo not given)", "Potency": "inactive"}, {"smiles": "O=C1C=CC2=C3c4cc(O)c(O)cc4C[C@@]3(O)COC2=C1", "Potency": "inconclusive: 22.3 µM [inhibitor, partial curve]"}, {"smiles": "O=C(CNCCc1ccc(Cl)cc1)Nc1ccc(C(=O)N2CCCCC2)cc1", "Potency": "inconclusive: 20 µM [inhibitor, single point]"}, {"smiles": "CN(Cc1ccccc1)Cc1nc2c(c(=O)n(C)c(=O)n2C)n1Cc1ccc(F)cc1", "Potency": "inactive"}, {"smiles": "CC1(C#CC[N+]2(C)CCCCC2)CCC2C(O1)c1ccccc1OC2(C)C", "note": "(stereo not given)", "Potency": "inconclusive: 19.9 µM [inhibitor, single point]"}, {"smiles": "CCOC(=O)COc1ccc(/C=C2/C(=O)NN(c3ccc(F)cc3)C2=O)cc1OC", "Potency": "inconclusive: 17.8 µM [inhibitor, single point]"}, {"smiles": "CCN(Cc1ccccc1)C(c1ccc(Cl)cc1)c1nnnn1C(C)(C)C", "note": "(stereo not given)", "Potency": "inactive"}, {"smiles": "COc1cccc(C(c2sc3nc(C)nn3c2O)N2CCc3ccccc3C2)c1", "note": "(stereo not given)", "Potency": "inconclusive: 14.1 µM [inhibitor, partial curve]"}, {"smiles": "O=C(CSc1nnc(-c2ccccc2)n1-c1ccc(Cl)cc1)NNC(=S)Nc1ccccc1", "Potency": "inconclusive: 22.3 µM [activator, partial curve]"}, {"smiles": "CCCc1cc2c(-c3ccccc3)cc(=O)oc2cc1OCc1ccc(C(=O)O)o1", "Potency": "inconclusive: 15.8 µM [activator, single point]"}, {"smiles": "O=C(CCOc1ccccc1)Nc1ccnn1C1CCN(CCc2ccccc2)CC1", "Potency": "inactive"}, {"smiles": "O=C(O)C1C2CCC(O2)C1C(=O)Nc1ccc(O)cc1", "note": "(stereo not given)", "Potency": "inconclusive: 5.61 µM [inhibitor, partial curve]"}, {"smiles": "CC1(C)COCN1S(=O)(=O)c1ccc(C(=O)Nc2nnc(-c3ccc(Cl)s3)o2)cc1", "Potency": "inconclusive: 19.9 µM [activator, partial curve]"}, {"smiles": "COc1ccc(OC)c2c1CCC1NCCOC21", "note": "(stereo not given)", "Potency": "inconclusive: 15.8 µM [inhibitor, single point]"}, {"smiles": "CCc1cc2c(CN3CCN(CCO)CC3)cc(=O)oc2cc1O", "Potency": "inactive"}, {"smiles": "O=c1[nH]c(CN2CCCCC2)nc2ccccc12", "Potency": "inactive"}, {"smiles": "COCCCN(C(=O)Nc1ccc(C)c(C)c1)C(C)c1ccccn1", "note": "(stereo not given)", "Potency": "inactive"}, {"smiles": "Cc1cc(O)c(C(C)C)cc1Cl", "Potency": "inactive"}, {"smiles": "COc1cc(/C=C/[N+](=O)[O-])ccc1O", "Potency": "inconclusive: 6.29 µM [inhibitor, partial curve]"}, {"smiles": "CN1CC=C2C(C#N)=C(N)C(C#N)(C#N)[C@H](c3ccoc3)[C@H]2C1", "Potency": "inconclusive: 17.7 µM [inhibitor, partial curve]"}, {"smiles": "c1ccc(COc2ccc(OCCN3CCCCC3)cc2)cc1", "Potency": "inconclusive: 14.1 µM [inhibitor, partial curve]"}, {"smiles": "CC1=C(C#N)C(=O)N(C2CCS(=O)(=O)C2)C(=O)/C1=C\\c1ccco1", "note": "(stereo not given)", "Potency": "active: 9.98 µM"}, {"smiles": "CN1C(=O)NC(=O)/C(=C\\C=C\\c2ccccc2[N+](=O)[O-])C1=O", "Potency": "inconclusive: 17.7 µM [inhibitor, partial curve]"}, {"smiles": "CC(C)N=C(NS(=O)(=O)c1ccccc1)C(Cl)(Cl)Cl", "Potency": "inactive"}, {"smiles": "O=C(CSc1nc2ccccc2[nH]1)NC1CCCc2ccccc21", "note": "(stereo not given)", "Potency": "inconclusive: 17.7 µM [inhibitor, single point]"}, {"smiles": "CCN(CC)S(=O)(=O)c1cccc(-c2cn3cc(C)ccc3n2)c1", "Potency": "inconclusive: 15.8 µM [inhibitor, partial curve]"}, {"smiles": "Cc1cccc(-n2c(CNC(=O)c3cccc([N+](=O)[O-])c3C)n[nH]c2=S)c1", "Potency": "inactive"}, {"smiles": "CN1CCN(CC#CCC2(O)c3ccccc3-c3ccccc32)CC1", "Potency": "inconclusive: 17.7 µM [inhibitor, single point]"}, {"smiles": "COC(=O)C1=COC(C)C2CN3CCc4c([nH]c5cc(OC)c(OC)cc45)C3CC12", "note": "(stereo not given)", "Potency": "inconclusive: 1.41 µM [inhibitor, full curve]"}, {"smiles": "COc1ccc(C(=O)NC(=S)Nc2nnn(C)n2)cc1", "Potency": "active: 1.77 µM"}, {"smiles": "COc1ccc(S(=O)(=O)Oc2cccc(/C=N/N=C3/NC(=O)C(CC(=O)O)S3)c2)cc1", "note": "(stereo not given)", "Potency": "inconclusive: 15.8 µM [inhibitor, partial curve]"}, {"smiles": "CCOC(=O)N1CCC(NC(=O)C2CCN(S(=O)(=O)c3cccc4cccnc34)CC2)CC1", "Potency": "inconclusive: 5 µM [activator, partial curve]"}, {"smiles": "CC(C)(C)C1C/C(=C/c2ccccn2)C(=O)/C(=C/c2ccccn2)C1", "note": "(stereo not given)", "Potency": "inconclusive: 17.7 µM [inhibitor, single point]"}, {"smiles": "Cc1cc(/C=N/NC(N)=S)c(C)n1-c1ccc(Cl)c(Cl)c1", "Potency": "inconclusive: 9.98 µM [inhibitor, partial curve]"}, {"smiles": "CN=C(NC1CCCCC1)c1ccc([N+](=O)[O-])cc1", "Potency": "inconclusive: 28.2 µM [inhibitor, single point]"}, {"smiles": "COc1ccccc1NC(=S)NNC(=O)c1ccc(Cl)cc1Cl", "Potency": "inconclusive: 31.5 µM [activator, single point]"}, {"smiles": "CCc1nnc(NC(=O)CN2CCN(Cc3ccccc3C)CC2)s1", "Potency": "inconclusive: 7.08 µM [inhibitor, partial curve]"}, {"smiles": "C/C(=N/O)c1ccccn1", "Potency": "active: 3.15 µM"}, {"smiles": "CN1CCC(N2CC3CC(C2)c2cccc(=O)n2C3)CC1", "note": "(stereo not given)", "Potency": "inconclusive: 22.3 µM [inhibitor, single point]"}, {"smiles": "CCOC(=O)CNC(=O)c1ccc(Cl)s1", "Potency": "inactive"}, {"smiles": "Cc1cc(NC(=O)c2sc(Nc3cccc(C(F)(F)F)c3)nc2N)no1", "Potency": "inactive"}, {"smiles": "Cn1c(=O)c2c(nc(N/N=C/c3cccs3)n2C)n(C)c1=O", "Potency": "inconclusive: 12.6 µM [inhibitor, partial curve]"}, {"smiles": "COc1ccc(C(=O)NC(C)C2CC3CCC2C3)c(OC)c1", "note": "(stereo not given)", "Potency": "inactive"}, {"smiles": "CCN(CC)CCNC(=O)c1cc2ccccc2nc1Cl", "Potency": "inconclusive: 19.9 µM [inhibitor, partial curve]"}, {"smiles": "COc1ccc(-c2cc3ccccc3n2CC(O)CN2CCC(C)CC2)cc1", "note": "(stereo not given)", "Potency": "inconclusive: 15.8 µM [inhibitor, single point]"}, {"smiles": "CCN(CC)c1ccc(C(=O)NC(=S)Nc2cc(S(=O)(=O)N3CCOCC3)ccc2-n2cncn2)cc1", "Potency": "inconclusive: 15.8 µM [inhibitor, partial curve]"}, {"smiles": "Cc1cc(C)c(C)c(OCCOCCN2CCN(C)CC2)c1", "Potency": "inactive"}, {"smiles": "Cc1ccc(Cl)cc1NC(=O)COc1ccccc1", "Potency": "inactive"}, {"smiles": "Cc1ccc(C2C3=C(Nc4[nH]n(-c5ccccc5)c(=O)c42)c2ccccc2C3=O)cc1", "note": "(stereo not given)", "Potency": "inconclusive: 5 µM [inhibitor, full curve]"}, {"smiles": "COc1cccc(NC(=O)C2C3C=CC(O3)C2C(=O)NCc2cccnc2)c1", "note": "(stereo not given)", "Potency": "inactive"}, {"smiles": "CCOC(=O)C1=C(O)/C(=C/c2ccc(CNC(=O)C(=O)Nc3ccc(C)cc3)o2)N=C1C", "Potency": "active: 4.46 µM"}, {"smiles": "O=C(NNC(=S)NC(=O)c1sc2ccccc2c1Cl)c1ccc(Cl)cc1", "Potency": "inconclusive: 15.8 µM [activator, single point]"}, {"smiles": "Cc1ccc(/C=C2\\C(=O)NC(=S)N(c3ccc(F)cc3)C2=O)o1", "Potency": "inconclusive: 14.1 µM [inhibitor, partial curve]"}, {"smiles": "Cc1cc(C)nc(S/C=C/C(=O)c2ccc(F)cc2)n1", "Potency": "inactive"}, {"smiles": "O=P1(O)C=C(c2ccccc2)OC(c2ccccc2)=C1", "Potency": "inconclusive: 5.61 µM [activator, partial curve]"}, {"smiles": "CC1CCN(CCCn2c(=S)[nH]c3c(sc4ccc([N+](=O)[O-])cc43)c2=O)CC1", "Potency": "inactive"}, {"smiles": "CC(=O)c1ccc(-c2cccc(C3C4C=CCCC4(C)C(=O)N3Cc3ccccc3)c2)cc1", "note": "(stereo not given)", "Potency": "inactive"}, {"smiles": "C/C(CC(=O)Nc1ccc2c(c1)OCCO2)=N\\NC(=O)c1cccc(O)c1", "Potency": "inactive"}, {"smiles": "CC(C)(C)C(=O)n1nc(-c2ccccc2)oc1=O", "Potency": "inactive"}, {"smiles": "O=C(CCCN1C(=O)/C(=C\\c2cccs2)SC1=S)Nc1ccccn1", "Potency": "inactive"}, {"smiles": "CC(=C/c1ccc(C(C)C)cc1)/C=N/NC(=O)Cn1nnnc1N", "Potency": "inactive"}, {"smiles": "O=C(N/C(=C\\c1ccco1)C(=O)N1CCOCC1)c1ccco1", "Potency": "inconclusive: 15.8 µM [inhibitor, single point]"}, {"smiles": "Cn1nnnc1SCC(=O)NC1CCCCC1", "Potency": "inactive"}, {"smiles": "CCn1c(CSc2nc3ccccc3[nH]2)nc2cc(C(=O)O)ccc21", "Potency": "inconclusive: 17.7 µM [inhibitor, partial curve]"}, {"smiles": "CCOC(=O)NCCc1c(C)nc2c(c(C)nn2C(C)(C)C)c1C", "Potency": "inactive"}, {"smiles": "Cc1cc(N)n(C2CCN(C)CC2)n1", "Potency": "inconclusive: 25.1 µM [inhibitor, single point]"}, {"smiles": "CC(=O)Nc1ccc(CNc2ncnc3ccc(-c4c(C)noc4C)cc23)cc1", "Potency": "inconclusive: 31.5 µM [inhibitor, single point]"}, {"smiles": "COc1cc(C(=O)Nc2nnc(C)s2)cc(OC)c1OC", "Potency": "inactive"}, {"smiles": "CC(C)OC(=O)CSc1nc2ncc(Cl)cc2[nH]1", "Potency": "inconclusive: 14.1 µM [inhibitor, partial curve]"}, {"smiles": "Cc1cc(/C=N/Nc2ccc([N+](=O)[O-])cn2)c(C)n1-c1ccc(C(=O)O)cc1", "Potency": "inconclusive: 15.8 µM [inhibitor, partial curve]"}]}]}
